From PubChem BioAssay (NCATS)
The inconclusive results got no clear call from the source; some entries with a clear call stand among them for comparison. For part of these data: Potencies of inconclusive entries are doubtful fits and often do not repeat. The source made the active and inactive calls. Unless noted, calls follow the shape of the dose curve; as a rule, active = well fitted curve in the direction sought with a large enough effect; inconclusive = small, poorly fitted or top-dose-only effect, or another doubt; inactive = no such curve, though single readings can be large; an effect the other way counts as inactive or inconclusive.

Experiments:
[1] = NFAT Signaling Pathway (AID 444; active = well fitted curve in either direction with a large enough effect, not every such curve was filed as active; inconclusive = small, poorly fitted or top-dose-only effect, or another doubt;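 also: carbachol stimulus at about its EC50 of 1 µM final; % is scaled to controls: 0 for no effect and ±100 for the full control effect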); conditions: Jurkat NFAT-bla M1, carbachol, beta-lactamase ratio, 5 h; at 7.69 µM (top of the series) unless noted
Procedure, shortened: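 Read-out: CCF4 FRET ratio (460 nm/530 nm) after 1 h RT dye loading, used for %activity and AC50 from titration series. Cells: Jurkat NFAT-β-lactamase/M1 line, treated with compound plus 1 uM carbachol for 5 h, 37 °C.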

[2] = qHTS Assay for Lipid Storage Modulators (AID 1519; calls by dose curve; also: potency is read from the fitted curve at half-maximal effect; as to activity change, negative = inhibition: % is scaled to controls: 0 for no effect and ±100 for the full control effect); conditions: Drosophila S3 cells, BODIPY lipid droplet/cell ratio, laser cytometry, cells loaded with oleic acid; activity change, negative = inhibition: at 57.5 µM (top of the series) unless noted
Procedure, shortened: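 Cells seeded at 5,000 per well were treated with compounds over a concentration series and loaded with oleic acid (400 uM, as added). Lipid droplet fluorescence (488 nm excitation, 500-530 nm channel) was read by laser-scanning cytometry and normalized to 20 uM Triacsin C.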

[3] = biological target: Dual specificity protein kinase CLK4 (Homo sapiens) (UniProt Q9HAZ1); experiment: qHTS Assay for Inhibitors of CDC-like Kinase 4 (ADP-Glo Assay) (AID 1771); also: % is scaled to controls: 0 for no effect and ±100 for the full control effect; nearly all actives have a fitted effect of over 70% in size
UniProt Q9HAZ1, sequence (Q9HAZ1 whole entry, looked up): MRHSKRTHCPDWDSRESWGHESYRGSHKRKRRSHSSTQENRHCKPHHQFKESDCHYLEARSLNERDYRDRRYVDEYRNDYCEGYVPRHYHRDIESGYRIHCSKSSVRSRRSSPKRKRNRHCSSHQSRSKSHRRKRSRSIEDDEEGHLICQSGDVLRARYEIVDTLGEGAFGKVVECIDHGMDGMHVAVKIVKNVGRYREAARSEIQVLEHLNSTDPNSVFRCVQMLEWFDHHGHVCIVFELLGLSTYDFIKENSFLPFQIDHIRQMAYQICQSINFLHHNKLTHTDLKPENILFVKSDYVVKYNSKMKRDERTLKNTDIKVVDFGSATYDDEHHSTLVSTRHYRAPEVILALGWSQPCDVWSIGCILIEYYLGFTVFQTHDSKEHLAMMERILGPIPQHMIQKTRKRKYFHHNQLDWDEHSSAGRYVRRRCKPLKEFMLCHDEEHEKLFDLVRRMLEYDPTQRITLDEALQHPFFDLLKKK
Procedure, shortened: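 Clk4 (25 nM) was incubated 1 hr at room temperature with 100 uM RS repeat peptide and 1 uM ATP in buffer with 2 mM MgCl2, 0.5 mM EGTA, 2.5 mM DTT. ADP formed was quantified by ADP-Glo luminescence.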

[4] = biological target: Ubiquitin carboxyl-terminal hydrolase 1 (Homo sapiens) (UniProt O94782); experiment: Inhibitors of USP1/UAF1: Pilot qHTS (AID 504865);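 also: rhodamine fluorescence freed from ubiquitin-rhodamine substrate followed over time; top concentration of the series differs between compounds; % is scaled to controls: 0 for no effect and ±100 for the full control effect; nearly all actives have a fitted effect of over 35% in size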
UniProt O94782, sequence (O94782 whole entry, looked up): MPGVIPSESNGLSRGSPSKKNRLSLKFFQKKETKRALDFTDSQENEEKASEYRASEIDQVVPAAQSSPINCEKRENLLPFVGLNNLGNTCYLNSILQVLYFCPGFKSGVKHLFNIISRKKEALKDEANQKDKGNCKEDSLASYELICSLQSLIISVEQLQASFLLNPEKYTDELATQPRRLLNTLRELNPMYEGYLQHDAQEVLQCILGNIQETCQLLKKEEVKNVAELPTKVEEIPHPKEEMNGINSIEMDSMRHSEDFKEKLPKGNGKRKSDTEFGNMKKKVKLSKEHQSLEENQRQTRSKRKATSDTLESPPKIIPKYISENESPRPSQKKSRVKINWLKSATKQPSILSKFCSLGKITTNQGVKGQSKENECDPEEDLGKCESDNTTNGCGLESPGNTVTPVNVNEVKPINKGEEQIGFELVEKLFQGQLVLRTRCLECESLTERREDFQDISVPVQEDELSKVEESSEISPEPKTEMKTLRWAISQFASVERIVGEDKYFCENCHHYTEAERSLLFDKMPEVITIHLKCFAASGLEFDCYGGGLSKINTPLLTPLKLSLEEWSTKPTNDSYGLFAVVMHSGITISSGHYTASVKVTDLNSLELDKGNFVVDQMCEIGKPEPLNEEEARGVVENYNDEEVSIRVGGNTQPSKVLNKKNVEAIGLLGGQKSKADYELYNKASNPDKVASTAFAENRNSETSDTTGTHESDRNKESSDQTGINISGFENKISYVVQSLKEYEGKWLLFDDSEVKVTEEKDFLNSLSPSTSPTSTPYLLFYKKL
Procedure, shortened: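 In 50mM HEPES pH 7.8 containing 0.5mM EDTA, 1mM TCEP, 0.1 mg/ml BSA and 0.01% Tween-20, 1nM USP1/UAF1 is exposed to compound for 15 min, then Ub-Rho (150nM final) is added and fluorescence is read over time.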

[5] = biological target: Mitogen-activated protein kinase 10 (Mus musculus) (UniProt Q61831); experiment: JNK3 AlphaScreen Assay (AID 530; active = well fitted curve in either direction with a large enough effect, not every such curve was filed as active; inconclusive = small, poorly fitted or top-dose-only effect, or another doubt;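 also: kinase came from lysate of stimulated human HepG2 cells; signal reports phosphorylation of biotinylated GST-cJun 1-79 at Ser73 with 10 µM ATP; potency is read from the fitted curve at half-maximal effect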); conditions: JNK3 lysate, c-Jun phosphorylation; activity change, negative = inhibition: at 57.1 µM (top of the series)
Procedure, shortened: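 Room-temperature AlphaScreen kinase assay; pre-activated HepG2 lysate as JNK3 source, biotin-GST-cJun(1-79) substrate, 10 uM ATP, compound 15 min preincubation.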

[6] = biological target: 3',5'-cyclic-AMP phosphodiesterase 4B (Homo sapiens) (UniProt Q07343); experiment: qHTS Assay for Inhibitors of PDE-IV (AID 607; active = well fitted activation curve with a large enough effect in the main read-out, with a control signal flat, not every such curve was filed as active; inconclusive = small, poorly fitted or top-dose-only effect, or effect the other way, or a change in a side signal; also: potency is read from the fitted curve at half-maximal effect); conditions: HEK293 ACTOne CNG channel cells, membrane potential fluorescence; activation (PDE inhibition): at 22.9 µM (top of the series)
UniProt Q07343, sequence (Q07343 whole entry, looked up): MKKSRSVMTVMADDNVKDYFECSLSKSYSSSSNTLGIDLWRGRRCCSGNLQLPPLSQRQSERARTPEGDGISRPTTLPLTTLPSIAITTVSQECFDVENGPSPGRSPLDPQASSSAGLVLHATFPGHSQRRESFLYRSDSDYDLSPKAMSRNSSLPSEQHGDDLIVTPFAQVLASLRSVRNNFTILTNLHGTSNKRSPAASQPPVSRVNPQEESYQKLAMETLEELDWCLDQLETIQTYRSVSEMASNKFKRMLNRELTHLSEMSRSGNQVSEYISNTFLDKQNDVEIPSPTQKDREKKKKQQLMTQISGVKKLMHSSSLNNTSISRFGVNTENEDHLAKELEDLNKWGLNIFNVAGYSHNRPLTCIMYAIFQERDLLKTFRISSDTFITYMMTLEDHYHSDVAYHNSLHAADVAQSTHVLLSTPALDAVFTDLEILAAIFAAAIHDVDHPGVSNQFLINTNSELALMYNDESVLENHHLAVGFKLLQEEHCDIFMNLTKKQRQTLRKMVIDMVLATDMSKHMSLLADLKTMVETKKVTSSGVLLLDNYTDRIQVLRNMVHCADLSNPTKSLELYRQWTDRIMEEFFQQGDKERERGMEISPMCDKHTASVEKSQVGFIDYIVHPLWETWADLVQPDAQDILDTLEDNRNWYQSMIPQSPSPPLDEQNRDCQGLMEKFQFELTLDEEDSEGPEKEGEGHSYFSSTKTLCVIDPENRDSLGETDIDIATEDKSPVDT
Procedure, shortened: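 Live HEK293 cells with a modified cyclic nucleotide-gated (CNG) channel report intracellular cAMP via membrane-potential dye fluorescence (ex 535/em 590 nm). Endogenous PDE-IV was targeted. Compounds were tested at up to 22.9 uM final; RO 20-1724 100 uM served as control.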

[7] = biological target: Cytochrome P450 3A4 (Homo sapiens) (UniProt P08684); experiment: qHTS Assay for Inhibitors and Substrates of Cytochrome P450 3A4 (AID 884); conditions: recombinant CYP3A4, Luciferin-PPXE luminescence; activity change, negative = inhibition: at 57.1 µM (top of the series); also: potency is read from the fitted curve at half-maximal effect; nearly all actives have a fitted effect of over 50% in size
UniProt P08684, sequence (P08684 whole entry, looked up): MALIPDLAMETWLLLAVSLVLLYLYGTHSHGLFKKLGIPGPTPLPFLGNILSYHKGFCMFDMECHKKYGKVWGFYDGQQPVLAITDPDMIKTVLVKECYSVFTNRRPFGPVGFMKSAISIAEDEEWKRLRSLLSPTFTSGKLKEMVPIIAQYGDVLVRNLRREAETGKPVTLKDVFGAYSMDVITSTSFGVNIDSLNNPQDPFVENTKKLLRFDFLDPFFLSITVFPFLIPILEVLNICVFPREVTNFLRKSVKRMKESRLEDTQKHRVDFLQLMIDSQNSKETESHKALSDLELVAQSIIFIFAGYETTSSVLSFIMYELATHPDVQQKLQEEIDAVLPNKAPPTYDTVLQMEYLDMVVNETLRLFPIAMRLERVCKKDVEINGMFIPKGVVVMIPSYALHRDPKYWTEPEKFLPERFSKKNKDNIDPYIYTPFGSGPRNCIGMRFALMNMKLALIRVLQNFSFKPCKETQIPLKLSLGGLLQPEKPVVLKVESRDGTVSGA
Procedure, shortened: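 20 nM human CYP3A4 with 25 uM Luciferin-PPXE (at KM) in 200 mM KPO4, preincubated 10 min with compound; NADPH regeneration started a 60 min RT reaction. Luciferin detected by luminescence, normalized to 57 uM ketoconazole as full inhibition.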

[8] = qHTS Assay for Identification of Small Molecule Antagonists for NFkB Signaling Pathway (AID 895; active = well fitted inhibition curve with a large enough effect in the signal ratio, with a control signal flat, not every such curve was filed as active; inconclusive = small, poorly fitted or top-dose-only effect, or effect the other way, or a change in a side signal; the % refers to the signal ratio; also: potency is read from the fitted curve at half-maximal effect); conditions: NFkB beta-lactamase reporter cells, FRET ratio 460/530, stimulated with 10 pM TNF alpha; activity change, negative = inhibition: at 38.3 µM (top of the series)
Procedure, shortened: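 Beta-lactamase reporter read-out (460 and 530 nm emission ratio, 405 nm excitation, 2 hrs substrate loading RT) after 5 hr stimulation with 10 pM TNF alpha in compound-treated NFkB-bla ME-180 cells in low-serum medium.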

[9] = qHTS Assay for Identification of Small Molecule Agonists for Thrombopoietin (TPO) Signaling Pathway (AID 917); also: potency is read from the fitted curve at half-maximal effect
Procedure, shortened: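 Luminescence from a Glycoprotein IIb promoter–driven luciferase reporter served as read-out in murine Ba/F3 cells carrying the human TPO receptor. Cells, deprived of IL-3 overnight, received compounds with 26 pM TPO and were incubated 24 hrs at 37 C.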

[10] = qHTS for differential inhibitors of proliferation of Plasmodium falciparum line 7G8 (AID 1815);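 also: potency is read from the fitted curve at half-maximal effect; parasite growth measured after three days of incubation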
[11] = qHTS for differential inhibitors of proliferation of Plasmodium falciparum line GB4 (AID 1816); conditions: Potency: Plasmodium falciparum GB4 proliferation inhibition;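 also: parasite growth measured after 72 h incubation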; also: potency is read from the fitted curve at half-maximal effect;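 as to activity change, negative = inhibition: 0% = vehicle DMSO and -100% = reference inhibitor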
[12] = qHTS for differential inhibitors of proliferation of Plasmodium falciparum line W2 (AID 1883); conditions: Potency: Plasmodium falciparum W2 proliferation inhibition;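 also: potency is read from the fitted curve at half-maximal effect; parasites grown with compound for 72 h before lysis and staining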
[13] = Validation screen for small molecules that induce DNA re-replication in MCF 10A normal breast cells (AID 463097); also: 0% is about no effect; nearly all actives have a fitted effect of over 60% in size
Procedure, shortened: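 Image-based qHTS: normal breast cells are incubated with compound for 48 hr, stained with Hoechst, and scanned for total nuclear fluorescence. Compounds raising the fraction of nuclei with elevated DNA content count as re-replication inducers.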

[14] = Quantitative high throughput screen for delayed death inhibitors of the malarial parasite plastid, 96 hour incubation (AID 488745); also: potency is read from the fitted curve at half-maximal effect; nearly all actives have a fitted effect of over 70% in size
Procedure, shortened: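 P. falciparum carrying an integrated firefly luciferase reporter, grown in erythrocytes (2% hematocrit, 0.1% parasitemia final) in RPMI 1640/0.5% Albumax, was exposed to compound for 96 h (two generations) at 37 C, 5% CO2. Luminescence decrease indicated growth inhibition.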

[15] = AP1 Signaling Pathway (AID 357; active = well fitted curve in either direction with a large enough effect, not every such curve was filed as active; inconclusive = small, poorly fitted or top-dose-only effect, or another doubt;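 also: ME-180 reporter cells stimulated with EGF at its EC50 level; top concentration of the series differs between compounds; % is scaled to controls: 0 for no effect and ±100 for the full control effect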); conditions: ME-180 AP-1-bla reporter, EGF-induced, beta-lactamase ratio, 5 h; at 7.69 µM (top of the series) unless noted
Procedure, shortened: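 Beta-lactamase reporter under AP-1 response element, ME-180 background. Stimulus: EC50 EGF. Compound exposure 5 h, 37 °C. Detection: CCF4, 2.5 h RT, 460/530 nm. Values: AC50 from titration.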

[16] = biological target: Cytochrome P450 1A2 (Homo sapiens) (UniProt P05177); experiment: p450-cyp1a2 (AID 410; calls by dose curve;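 also: top concentration of the series differs between compounds; -100% = full effect of reference inhibitor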)
UniProt P05177, sequence (P05177 whole entry, looked up): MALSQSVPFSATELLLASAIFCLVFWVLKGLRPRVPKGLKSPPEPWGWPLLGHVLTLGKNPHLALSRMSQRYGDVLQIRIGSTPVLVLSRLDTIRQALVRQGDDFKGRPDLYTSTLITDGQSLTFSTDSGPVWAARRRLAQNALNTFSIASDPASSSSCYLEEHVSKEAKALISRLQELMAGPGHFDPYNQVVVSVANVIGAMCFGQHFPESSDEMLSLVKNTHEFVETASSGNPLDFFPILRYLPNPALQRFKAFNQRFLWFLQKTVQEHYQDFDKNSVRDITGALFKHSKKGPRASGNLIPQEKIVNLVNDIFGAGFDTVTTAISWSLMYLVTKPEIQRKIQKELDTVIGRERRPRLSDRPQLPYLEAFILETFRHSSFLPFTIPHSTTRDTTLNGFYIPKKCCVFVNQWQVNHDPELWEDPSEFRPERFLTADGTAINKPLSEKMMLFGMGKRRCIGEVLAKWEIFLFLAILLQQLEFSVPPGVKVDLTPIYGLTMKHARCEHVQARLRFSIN
Procedure, shortened: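 Human CYP1A2 (20nM) demethylated Luciferin-ME at its Km (100uM) in 100mM KPO4. After 10 min compound preincubation, NADPH regeneration ran the reaction 60 min at room temperature. Luciferin was read by luminescence, normalized to 57 uM furafylline.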

[17] = Stat Signaling Pathway (AID 446; active = well fitted curve in either direction with a large enough effect, not every such curve was filed as active; inconclusive = small, poorly fitted or top-dose-only effect, or another doubt;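 also: ME-180 cervical cancer cells given 40 pM IL-6 alongside compound; SIE-controlled beta-lactamase reporter measured as 460/530 nm FRET emission ratio; top concentration of the series differs between compounds; % is scaled to controls: 0 for no effect and ±100 for the full control effect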); conditions: ME-180 SIE beta-lactamase reporter, IL-6 stimulated, 5 h; at 7.69 µM (top of the series) unless noted
Procedure, shortened: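 IL-6/STAT signaling read in ME-180 cells via an SIE beta-lactamase reporter. Stimulus was 40 pM IL-6 (its AC50) for 5 hrs, so both activation and inhibition register.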

[18] = biological target: Cytochrome P450 2D6 (Homo sapiens) (UniProt P10635); experiment: qHTS Assay for Inhibitors and Substrates of Cytochrome P450 2D6 (AID 891);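 also: luciferin methyl ether substrate demethylated by CYP2D6 with NADPH regeneration; potency is read from the fitted curve at half-maximal effect; nearly all actives have a fitted effect of over 60% in size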
Procedure, shortened: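 Human CYP2D6 (5 nM) with 30 uM Luciferin-ME EGE (at Km) in 100 mM KPO4, compound preincubated 10 min, then NADPH regeneration system for 60 min at room temperature. Luciferin read by luminescence; normalized to 1.43 uM quinidine.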

[19] = biological target: Muscarinic acetylcholine receptor M1 (Rattus norvegicus) (UniProt P08482); experiment: qHTS Assay for Antagonists of Acetylcholine Muscarinic M1 Receptor: Kinetic Measurement of Intracellular Calcium Response (AID 943);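 also: Fluo-4 calcium signal as peak divided by basal fluorescence over 4 min; nearly all actives have a fitted effect of over 75% in size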
UniProt P08482, sequence (P08482 whole entry, looked up): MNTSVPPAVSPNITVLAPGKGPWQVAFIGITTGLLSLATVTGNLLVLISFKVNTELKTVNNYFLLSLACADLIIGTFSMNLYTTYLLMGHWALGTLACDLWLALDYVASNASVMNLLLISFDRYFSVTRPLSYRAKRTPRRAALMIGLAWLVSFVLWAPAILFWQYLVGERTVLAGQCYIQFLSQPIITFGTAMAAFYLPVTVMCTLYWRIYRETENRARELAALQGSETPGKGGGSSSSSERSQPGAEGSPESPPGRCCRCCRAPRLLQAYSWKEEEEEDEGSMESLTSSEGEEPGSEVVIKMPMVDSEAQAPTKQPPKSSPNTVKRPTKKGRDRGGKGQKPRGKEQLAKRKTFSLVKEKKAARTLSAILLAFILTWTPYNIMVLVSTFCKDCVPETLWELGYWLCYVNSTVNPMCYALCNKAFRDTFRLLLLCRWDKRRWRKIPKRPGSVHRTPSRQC
Procedure, shortened: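 CHO cells stably expressing rat M1 were loaded with no-wash Fluo-4 dye for 1 h at 37C, pre-incubated 10 min with compound, then challenged with EC80 carbachol (100 nM final); kinetic calcium read 4 min, peak/basal ratio.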

[20] = qHTS Assay for Modulators of Human Peripheral Myelin Protein 22 (PMP22) Expression/Activity (AID 1967; active = well fitted curve in the direction sought with a large enough effect in the signal ratio; inconclusive = small, poorly fitted or top-dose-only effect, or effect the other way, or a change in a side signal; inactive = no such curve, though single readings can be large or run the other way; the % refers to the signal ratio;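 also: 0% = untreated cells and 100% end not stated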); conditions: Cell-based PMP22 reporter, dual-color luciferase ratio, mouse Pmp22 promoter in mouse Schwann cells; activity change (ratio): at 115 µM (top of the series), 0% = compound-free control cells
Procedure, shortened: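 Luminescence ratio of Pmp22 promoter-driven green luciferase to EF-alpha-driven red luciferase, in engineered mouse MSC80 Schwann cells, served as read-out. Compounds were incubated 24h; untreated cells defined 0% Activity; curves were classified by r2, magnitude and activity.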

[21] = biological target: RecQ-like DNA helicase BLM (Homo sapiens) (UniProt P54132); experiment: qHTS Validation Assay for Inhibitors of Bloom's syndrome helicase (BLM) (AID 2364);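 also: plate controls were DMSO vehicle for no effect and enzyme-free control for full effect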
UniProt P54132, sequence (P54132 whole entry, looked up): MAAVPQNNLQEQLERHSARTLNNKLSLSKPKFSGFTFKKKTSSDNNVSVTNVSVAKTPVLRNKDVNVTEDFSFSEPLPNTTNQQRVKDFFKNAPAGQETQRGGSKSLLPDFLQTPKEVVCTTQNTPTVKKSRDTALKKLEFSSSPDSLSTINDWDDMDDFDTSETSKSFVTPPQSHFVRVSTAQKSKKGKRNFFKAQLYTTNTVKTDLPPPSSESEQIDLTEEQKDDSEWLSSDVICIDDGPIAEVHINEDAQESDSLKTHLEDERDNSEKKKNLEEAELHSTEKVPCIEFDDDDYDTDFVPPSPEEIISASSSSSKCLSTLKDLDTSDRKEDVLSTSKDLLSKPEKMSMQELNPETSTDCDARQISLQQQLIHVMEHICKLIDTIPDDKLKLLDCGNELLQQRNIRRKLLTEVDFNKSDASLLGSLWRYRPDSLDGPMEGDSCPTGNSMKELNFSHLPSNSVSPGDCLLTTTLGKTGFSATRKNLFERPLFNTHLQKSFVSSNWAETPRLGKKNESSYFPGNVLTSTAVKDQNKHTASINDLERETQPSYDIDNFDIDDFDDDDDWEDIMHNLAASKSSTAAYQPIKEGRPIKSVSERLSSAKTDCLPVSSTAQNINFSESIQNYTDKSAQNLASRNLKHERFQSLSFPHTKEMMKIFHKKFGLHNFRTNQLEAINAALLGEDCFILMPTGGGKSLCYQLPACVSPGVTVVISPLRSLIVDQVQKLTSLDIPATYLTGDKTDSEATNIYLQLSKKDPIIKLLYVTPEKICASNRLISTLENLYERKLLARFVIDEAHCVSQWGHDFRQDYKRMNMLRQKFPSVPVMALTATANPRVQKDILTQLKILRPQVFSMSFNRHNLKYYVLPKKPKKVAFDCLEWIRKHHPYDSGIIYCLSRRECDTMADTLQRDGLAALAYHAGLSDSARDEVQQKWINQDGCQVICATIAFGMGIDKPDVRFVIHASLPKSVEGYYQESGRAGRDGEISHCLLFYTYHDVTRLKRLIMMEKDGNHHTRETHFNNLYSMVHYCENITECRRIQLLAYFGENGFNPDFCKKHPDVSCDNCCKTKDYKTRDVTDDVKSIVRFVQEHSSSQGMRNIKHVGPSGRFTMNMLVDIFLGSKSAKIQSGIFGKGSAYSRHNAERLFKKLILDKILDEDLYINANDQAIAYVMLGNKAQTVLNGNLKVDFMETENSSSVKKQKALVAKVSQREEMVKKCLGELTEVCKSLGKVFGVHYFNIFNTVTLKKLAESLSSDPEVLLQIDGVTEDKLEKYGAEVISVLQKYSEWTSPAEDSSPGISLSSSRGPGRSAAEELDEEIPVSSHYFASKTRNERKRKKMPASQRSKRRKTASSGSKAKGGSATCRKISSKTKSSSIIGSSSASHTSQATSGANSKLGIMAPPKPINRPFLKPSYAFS
Procedure, shortened: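 Forked 20-bp duplex substrate (200 nM, TAMRA/BHQ-2) plus 2 mM ATP added after 15 min compound preincubation with 50 nM enzyme, pH 8.0, poly(dI-dC) 2.5 ug/ml. Strand separation followed by fluorescence (525/598 nm) over 2 h, normalized to enzyme-free and DMSO controls.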

[22] = qHTS Assay for Identification of Small Molecule Agonists for Hypoxia Response Element Signaling Pathway (AID 914; active = well fitted activation curve with a large enough effect in the signal ratio, with a control signal flat, not every such curve was filed as active; inconclusive = small, poorly fitted or top-dose-only effect, or effect the other way, or a change in a side signal; the % refers to the signal ratio; also: potency is read from the fitted curve at half-maximal effect); conditions: ME-180 (cervical carcinoma) HRE-bla reporter, beta-lactamase ratio, CoCl2, 17 h; activation: stronger effect = higher value
Procedure, shortened: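 Reporter activity (beta-lactamase, CCF4 460nm/530nm ratio) in HRE-bla ME-180 cells is recorded after 17 h compound exposure with EC50 CoCl2 at 37 degrees Celsius. AC50 values come from titration data.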

[23] = qHTS Assay for Inhibitors of Fructose-1,6-bisphosphate Aldolase from Giardia Lamblia: Giardia lamblia growth inhibition (AID 2785); conditions: Giardia lamblia trophozoite growth inhibition; activity change, negative = inhibition: at 38.3 µM (top of the series) unless noted; also: % is scaled to controls: 0 for no effect and ±100 for the full control effect; nearly all actives have a fitted effect of over 70% in size
Procedure, shortened: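 Whole-parasite growth test: Giardia WB trophozoites in TYI-S-33 (pH 7.0), 100 per well, incubated 48 h at 37C with compound. ATP content was read by ATPlite luminescence.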
Tags tell the direction and shape of the fitted curve or compound fluorescence and quenching.

Cc1cnc(CNc2ccnc(-c3ccccc3CN(C)C)n2)cn1
inactive: activity change, negative = inhibition [1] -5.1% | Potency [2] | Potency [3] | Potency [4]

CCn1c(=O)c2[nH]c(-c3ccccc3)nc2n(CC)c1=O
inactive: Potency [8] | Potency [11] | Potency [13]
inconclusive: Potency [5] 0.0794 µM [activator, full curve, poor fit] | Potency [7] 3.98 µM [inhibitor, full curve] | Potency [9] 12.6 µM [inhibitor, partial curve] | activity change, negative = inhibition [2] 1.14% | Potency [10] 10 µM [inhibitor, partial curve, poor fit] | Potency [12] 11.2 µM [inhibitor, partial curve] | Potency [14] 2.33 µM [activator, full curve, poor fit]
active: Potency [6] 2 µM

NCCNS(=O)(=O)c1cccc2cnccc12
inactive: Potency [16] | activity change, negative = inhibition [1] -13.5% [at 38 µM] | Potency [19] | Potency [21]
inconclusive: activity change, negative = inhibition [15] -32.6% [inhibitor] [at 38 µM] | activity, negative = inhibition [17] -39.7% [inhibitor] [at 38 µM] | Potency [6] 15.1 µM [inhibitor, single point] | Potency [18] 7.94 µM [inhibitor, full curve] | Potency [8] 0.251 µM [inhibitor, full curve] | Potency [9] 12.6 µM [activator, single point] | Potency [2] 15.8 µM [rising, single point] | Potency [10] 11.2 µM [inhibitor, single point] | Potency [11] 17.8 µM [inhibitor, single point] | activity change (ratio) [20] -13.4%

Nc1nc(=S)c2ncn([C@H]3O[C@@H](CO)[C@@H](O)[C@@H]3O)c2[nH]1
inconclusive: activity change, negative = inhibition [1] -17.5% [inhibitor] [at 17.2 µM] | Potency [22] 12.6 µM [inhibitor, single point]
inactive: Potency [2] | Potency [23]
